Some of the results follow. Viral Rep nickase domains cut single-stranded DNA in vitro for 1 h at 37 °C with 3 µM enzyme; only the middle of the 90-letter strands is printed. Values are log2 of uncut reads against the no-enzyme pool; strong cutting gives strongly negative numbers. There is no active / inactive call. Because reads are shares of a total, they shift together; uncut strands gain when others are lost, and binding without cutting may add a little.
Experiments:
Test in all cases: uncleaved DNA left, log2 of reads against the no-enzyme library (log2 ratio); higher = less cleavage (more negative = more Rep cleavage of the k-mer); sequences stand for … in CTCGTCCG…ACCGGAGA
[1] = test system: T1, Rep nickase domain of Muscovy duck circovirus
T1 sequence (protein, residues 1-111, tag omitted): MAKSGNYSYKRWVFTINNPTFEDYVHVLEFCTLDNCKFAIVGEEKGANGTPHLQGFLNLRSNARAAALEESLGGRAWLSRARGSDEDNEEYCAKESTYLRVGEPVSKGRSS
Protocol: (§1)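 A pool of 90-nt single-stranded DNAs with seven random bases just before the constant AC of the nick site (name = the seven bases) was cut by 3 µM recombinant His6-SUMO-tagged Rep nickase domain (300 nM DNA, 50 mM HEPES pH 8.0, 50 mM NaCl, 1 mM MnCl2, 1 h, 37 °C, three replicates). Uncut DNA was amplified and sequenced.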

[2] = test system: T2, Rep nickase domain of banana bunchy top virus
T2 sequence (protein, residues 1-94, tag omitted): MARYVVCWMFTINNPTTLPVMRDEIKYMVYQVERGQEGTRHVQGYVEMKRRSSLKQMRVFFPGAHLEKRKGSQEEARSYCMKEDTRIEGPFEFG
Protocol: as §1

[3] = test system: T3, Rep nickase domain of cabbage leaf curl virus
T3 sequence (protein, residues 1-116, tag omitted): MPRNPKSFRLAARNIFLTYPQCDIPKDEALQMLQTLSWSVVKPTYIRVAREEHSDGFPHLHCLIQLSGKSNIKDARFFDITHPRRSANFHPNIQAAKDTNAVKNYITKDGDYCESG
Protocol: as §1

[4] = test system: T4, Rep nickase domain of chickpea chlorotic dwarf virus
T4 sequence (protein, residues 1-124, tag omitted): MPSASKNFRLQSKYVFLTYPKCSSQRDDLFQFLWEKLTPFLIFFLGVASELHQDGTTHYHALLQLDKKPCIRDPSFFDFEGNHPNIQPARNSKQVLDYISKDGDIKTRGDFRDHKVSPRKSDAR
Protocol: as §1

[5] = test system: T5, Rep nickase domain of faba bean necrotic yellows virus
T5 sequence (protein, residues 1-98, tag omitted): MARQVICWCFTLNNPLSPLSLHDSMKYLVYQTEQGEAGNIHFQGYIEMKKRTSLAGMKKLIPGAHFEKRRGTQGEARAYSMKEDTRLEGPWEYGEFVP
Protocol: as §1

[6] = test system: T6, Rep nickase domain of maize striate mosaic virus
T6 sequence (protein, residues 1-117, tag omitted): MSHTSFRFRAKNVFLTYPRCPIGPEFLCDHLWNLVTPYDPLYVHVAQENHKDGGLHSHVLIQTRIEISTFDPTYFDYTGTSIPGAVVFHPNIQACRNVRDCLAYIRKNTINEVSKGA
Protocol: as §1

[7] = test system: T7, Rep nickase domain of porcine circovirus 2
T7 sequence (protein, residues 2-116, tag omitted): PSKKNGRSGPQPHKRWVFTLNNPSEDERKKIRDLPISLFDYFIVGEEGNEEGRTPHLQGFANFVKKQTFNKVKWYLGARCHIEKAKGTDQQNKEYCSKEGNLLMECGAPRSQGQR
Protocol: as §1

[8] = test system: T8, Rep nickase domain of tomato yellow leaf curl virus
T8 sequence (protein, residues 1-136, tag omitted): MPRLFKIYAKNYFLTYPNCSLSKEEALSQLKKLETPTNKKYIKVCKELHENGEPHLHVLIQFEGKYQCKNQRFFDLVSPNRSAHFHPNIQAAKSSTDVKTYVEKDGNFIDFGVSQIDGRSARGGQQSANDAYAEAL
Protocol: as §1

[9] = test system: T9, Rep nickase domain of wheat dwarf virus
T9 sequence (protein, residues 1-137, tag omitted): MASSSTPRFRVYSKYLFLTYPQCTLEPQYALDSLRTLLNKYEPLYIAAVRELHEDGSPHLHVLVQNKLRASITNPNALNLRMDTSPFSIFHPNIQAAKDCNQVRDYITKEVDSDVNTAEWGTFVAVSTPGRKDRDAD
Protocol: as §1

| Sequence | uncleaved DNA left (log2) [1] | uncleaved DNA left (log2) [2] | uncleaved DNA left (log2) [3] | uncleaved DNA left (log2) [4] | uncleaved DNA left (log2) [5] | uncleaved DNA left (log2) [6] | uncleaved DNA left (log2) [7] | uncleaved DNA left (log2) [8] | uncleaved DNA left (log2) [9] |
| --- | --- | --- | --- | --- | --- | --- | --- | --- | --- |
| ATCTTTC | 0.0462 | 0.0259 | 0.0755 | -0.158 | 0.0407 | -0.764 | 0.0119 | 0.13 | 0.00942 |
| CGGCTAA | 0.103 | 0.0887 | 0.0301 | 0.461 | 0.0889 | 0.805 | 0.0625 | 0.0097 | 0.0874 |
| ACTTAGG | 0.129 | -0.0105 | -0.39 | 0.249 | -0.0111 | -0.686 | 0.179 | 0.0549 | 0.0435 |
| ACTGCCG | -0.0247 | -0.0313 | -0.89 | -0.514 | 0.0185 | -1.15 | 0.0175 | 0.0368 | -0.131 |
| GAGGGGC | 0.0299 | -0.0307 | 0.664 | 1.18 | 0.0168 | 1.74 | 0.0581 | -0.063 | 0.0357 |
| ATCTTCG | -0.037 | -0.0975 | -0.933 | -0.254 | -0.111 | -1.26 | 0.0141 | -0.0581 | -0.123 |
| TGTGGCT | 0.0466 | -0.0507 | 0.0441 | 0.0786 | 0.0618 | -0.00452 | 0.113 | -0.134 | -0.0852 |
| ACTCCCG | -0.0257 | 0.0544 | -0.595 | 0.317 | -0.027 | -0.673 | 0.058 | 0.0513 | 0.0752 |
| CCTGAGT | 0.0179 | 0.0284 | -0.3 | -0.629 | -0.00109 | -0.932 | -0.161 | -0.0336 | -0.0496 |
| CGTGCTA | 0.0857 | 0.106 | 0.0398 | 0.0957 | 0.134 | 0.235 | -0.0924 | -0.00508 | -0.0404 |
| TCTACTA | -0.0978 | -0.147 | -0.196 | -2.54 | 0.0025 | -0.32 | -0.329 | -0.00255 | -0.0506 |
| GTGCGAG | 0.0797 | 0.0677 | 0.364 | 0.838 | -0.00407 | 0.254 | 0.295 | 0.203 | 0.159 |
| GGTGTAA | 0.0705 | 0.138 | 0.567 | 0.97 | 0.00978 | 2.03 | 0.12 | 0.115 | 0.206 |
| GCTCATC | 0.116 | 0.108 | 0.195 | 0.568 | 0.077 | 0.00644 | 0.18 | 0.0886 | 0.0687 |
| CGTGAGA | 0.084 | 0.0621 | -0.0301 | -0.0485 | 0.0354 | -0.739 | -0.00961 | 0.12 | -0.0463 |
